Experimental data from the supplement of paper PMC6531468.
This is one part of the list. These are enrichments in a pooled selection; single values are uncertain. Each score is taken over the longer molecules that contain the sequence shown.

Key:
Assay in all cases: 6-mer SELEX enrichment z-score vs GST control; IMP3 is the RNA-binding protein IGF2BP3; higher = more enriched by binding
[1] = test system: IMP3 KH1-4; settings: construct: KH1-4 (164-579); SELEX round: R4
Experimental: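 SELEX-seq with GST-tagged IMP3 KH1-4 (Pro164-Lys579) and an N40 RNA pool, round 4. 6-mer z-score of sequence-tag enrichment normalised to the corresponding GST SELEX round; RNA k-mers written as DNA (T for U).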

[2] = test system: IMP3 RRM1-2; settings: construct: RRM1-2 (1-163); SELEX round: R2
Sequence of IMP3 RRM1-2 (chain, as listed by the source): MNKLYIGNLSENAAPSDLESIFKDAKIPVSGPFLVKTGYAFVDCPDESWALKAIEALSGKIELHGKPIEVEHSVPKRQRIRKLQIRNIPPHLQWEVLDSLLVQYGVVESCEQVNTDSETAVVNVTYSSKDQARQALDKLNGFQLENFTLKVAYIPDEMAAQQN
Experimental: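 SELEX-seq with GST-tagged IMP3 RRM1-2 (Met1-Asn163) and an N40 RNA pool, round 2. 6-mer enrichment z-score normalised to GST SELEX. RNA written as DNA (T = U).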

[3] = biological target: IMP3 full-length (UniProt O00425); settings: construct: FL IMP3 (1-579); SELEX round: R4
Sequence of UniProt O00425 (O00425 whole entry): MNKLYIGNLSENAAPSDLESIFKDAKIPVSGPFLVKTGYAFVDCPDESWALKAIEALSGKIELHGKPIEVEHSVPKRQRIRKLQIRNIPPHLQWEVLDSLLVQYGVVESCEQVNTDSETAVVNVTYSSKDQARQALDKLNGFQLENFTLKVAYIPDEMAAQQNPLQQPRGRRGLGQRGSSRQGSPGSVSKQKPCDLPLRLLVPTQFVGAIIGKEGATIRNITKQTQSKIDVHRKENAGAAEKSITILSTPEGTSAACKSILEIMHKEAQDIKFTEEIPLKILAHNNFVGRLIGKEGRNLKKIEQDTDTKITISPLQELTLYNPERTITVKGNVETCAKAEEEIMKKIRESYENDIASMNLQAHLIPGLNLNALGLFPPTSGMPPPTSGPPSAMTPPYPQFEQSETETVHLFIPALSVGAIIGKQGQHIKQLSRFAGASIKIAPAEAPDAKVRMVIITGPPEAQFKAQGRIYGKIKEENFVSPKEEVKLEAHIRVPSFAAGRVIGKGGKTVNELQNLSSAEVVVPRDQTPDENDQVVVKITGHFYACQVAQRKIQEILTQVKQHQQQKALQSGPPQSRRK
Experimental: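 SELEX-seq with GST-tagged full-length IMP3 and an N40 RNA pool, round 4. Each 6-mer is scored as an enrichment z-score of sequence tags containing it, normalised to the matching GST SELEX round. RNA written as DNA (T = U).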

[4] = test system: IMP3 KH1-2; settings: construct: KH1-2 (164-376); SELEX round: R4
Sequence of IMP3 KH1-2 (chain, as listed by the source): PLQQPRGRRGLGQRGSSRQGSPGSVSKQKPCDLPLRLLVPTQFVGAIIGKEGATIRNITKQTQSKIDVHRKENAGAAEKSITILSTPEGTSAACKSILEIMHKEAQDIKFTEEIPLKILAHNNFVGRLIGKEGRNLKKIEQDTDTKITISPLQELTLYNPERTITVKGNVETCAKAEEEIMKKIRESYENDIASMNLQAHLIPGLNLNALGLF
Experimental: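 SELEX-seq with GST-tagged IMP3 KH1-2 (Pro164-Phe376) and an N40 RNA pool, round 4 (stringent 300/600 mM KCl washes). 6-mer z-score of sequence-tag enrichment normalised to the corresponding GST SELEX round; RNA k-mers written as DNA (T for U).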

[5] = test system: IMP3 KH3-4; settings: construct: KH3-4 (377-579); SELEX round: R4
Sequence of IMP3 KH3-4 (chain, as listed by the source): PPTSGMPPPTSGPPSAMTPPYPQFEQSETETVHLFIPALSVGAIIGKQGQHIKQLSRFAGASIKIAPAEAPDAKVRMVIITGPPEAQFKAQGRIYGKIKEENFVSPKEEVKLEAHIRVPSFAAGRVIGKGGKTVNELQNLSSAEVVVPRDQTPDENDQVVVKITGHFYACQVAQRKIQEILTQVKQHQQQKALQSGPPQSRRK
Experimental: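 SELEX-seq with GST-tagged IMP3 KH3-4 (Pro377-Lys579) and an N40 RNA pool, round 4. 6-mer z-score of sequence-tag enrichment normalised to the corresponding GST SELEX round; RNA k-mers written as DNA (T for U).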

Sequence of IMP3 KH1-4 (chain, as listed by the source): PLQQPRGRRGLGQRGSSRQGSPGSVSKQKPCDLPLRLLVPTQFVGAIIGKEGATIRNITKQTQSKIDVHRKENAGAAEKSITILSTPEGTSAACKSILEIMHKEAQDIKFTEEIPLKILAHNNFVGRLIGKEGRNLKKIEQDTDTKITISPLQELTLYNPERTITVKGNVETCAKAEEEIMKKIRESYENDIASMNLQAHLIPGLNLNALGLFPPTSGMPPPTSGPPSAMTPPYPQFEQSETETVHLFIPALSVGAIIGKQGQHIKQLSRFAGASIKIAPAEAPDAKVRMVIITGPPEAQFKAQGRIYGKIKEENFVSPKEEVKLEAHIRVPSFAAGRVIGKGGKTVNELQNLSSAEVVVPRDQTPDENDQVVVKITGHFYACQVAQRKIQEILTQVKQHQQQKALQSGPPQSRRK

| Sequence | 6-mer SELEX enrichment z-score [1] | 6-mer SELEX enrichment z-score [2] | 6-mer SELEX enrichment z-score [3] | 6-mer SELEX enrichment z-score [4] | 6-mer SELEX enrichment z-score [5] |
| --- | --- | --- | --- | --- | --- |
| GGTATA | 0.055 | 0.108 | 0.017 | 0.081 | 0.346 |
| TGGGAA | 0.235 | -0.319 | -0.091 | 0.224 | 0.346 |
| TTTAGC | 0.062 | 0.251 | -0.108 | 0.025 | 0.248 |
| ACGTTG | -0.701 | -0.098 | -0.448 | -0.729 | -0.629 |
| TGGTGC | -0.331 | 0.357 | 0.007 | -0.26 | -0.246 |
| AAGGGC | -0.622 | -0.173 | 0.025 | -0.485 | -0.03 |
| GTTTTC | -0.116 | 0.417 | -0.009 | -0.086 | 0.009 |
| CTTCTT | 0.386 | 0.535 | 0.076 | 0.354 | 0.308 |
| TACCAA | -1 | -0.459 | -1.11 | -1.04 | -1.33 |
| CCCGGT | -0.791 | -0.39 | -0.253 | -0.614 | -0.807 |
| GGCCCT | -0.185 | -0.092 | 0.278 | -0.112 | -0.28 |
| TGAACG | -0.815 | -1.09 | -0.96 | -0.885 | -0.627 |
| TACCGT | -0.155 | -0.194 | -0.122 | -0.168 | -0.35 |
| ATTTGG | 0.1 | 0.306 | 0.068 | 0.069 | 0.38 |
| TGTAGG | -0.077 | 0.485 | -0.074 | -0.069 | 0.122 |
| TTTCCC | 0.092 | -0.147 | -0.563 | 0.004 | -0.325 |
| GCCGAT | -0.404 | -0.513 | -0.086 | -0.306 | -0.283 |
| TGTAAT | 0.665 | -0.061 | -0.101 | 0.466 | 0.962 |
| GGGACA | 0.663 | -0.103 | 0.361 | 0.739 | 0.554 |
| AGCGCA | -1.34 | 0.038 | -0.004 | -1.3 | -1.34 |

| Sequence | 6-mer SELEX enrichment z-score [1] | 6-mer SELEX enrichment z-score [2] | 6-mer SELEX enrichment z-score [3] | 6-mer SELEX enrichment z-score [4] | 6-mer SELEX enrichment z-score [5] |
| --- | --- | --- | --- | --- | --- |
| TAGGAT | 0.469 | 0.482 | 0.065 | 0.33 | 0.712 |
| CACACT | 1.76 | 2.24 | 1.55 | 2 | 0.737 |
| GCCGAA | -1.41 | -1.25 | -0.891 | -1.13 | -1.23 |
| TCCTGG | -0.354 | 0.129 | -0.144 | -0.291 | -0.389 |
| CACTGT | 0.732 | 0.411 | 0.623 | 0.654 | 0.225 |
| GAATGG | 0.737 | -0.547 | -0.07 | 0.521 | 0.898 |
| AATCGC | -0.104 | -0.402 | -0.301 | -0.191 | -0.337 |
| TCTGAG | -0.9 | -0.069 | -0.391 | -0.746 | -0.648 |
| GACTGG | -0.035 | -0.319 | -0.143 | -0.058 | -0.119 |
| CCCAAG | -2.08 | -1.24 | -1.7 | -2.01 | -2.26 |
| CCCTCC | -0.506 | -0.405 | -0.991 | -0.081 | -1.23 |
| TTCATT | 1.6 | 1.41 | 1.56 | 1.65 | 1.43 |
| ACTAGT | 0.212 | 0.141 | 0.036 | 0.076 | 0.239 |
| CGCAAT | 0.384 | 0.166 | 0.457 | 0.435 | 0.234 |
| GAAGCT | -0.412 | -0.447 | -0.474 | -0.465 | -0.34 |
| GTGACA | 0.388 | -0.394 | 0.362 | 0.139 | 0.154 |
| CGTAAA | -1.59 | -1.18 | -1.64 | -1.54 | -1.34 |
| ACCCCC | 0.061 | -1.22 | -1.18 | 0.499 | -1.26 |
| GAAACC | -2.06 | -1.78 | -2.15 | -1.9 | -2.18 |
| TTCACT | 1.15 | 1.06 | 0.857 | 1.19 | 0.87 |

| Sequence | 6-mer SELEX enrichment z-score [1] | 6-mer SELEX enrichment z-score [2] | 6-mer SELEX enrichment z-score [3] | 6-mer SELEX enrichment z-score [4] | 6-mer SELEX enrichment z-score [5] |
| --- | --- | --- | --- | --- | --- |
| ATCTTC | 0.535 | 0.464 | 0.339 | 0.402 | 0.199 |
| TCGGTT | 0.078 | 0.546 | 0.232 | 0.071 | 0.301 |
| CCCTTG | -0.65 | -0.339 | -0.694 | -0.611 | -0.885 |
| TATGGC | 0.831 | 0.409 | 0.455 | 0.663 | 1.02 |
| CGCGAG | -1.57 | -0.25 | -0.541 | -1.37 | -1.28 |
| AACCTG | -1.53 | -1.25 | -1.92 | -1.51 | -1.77 |
| ACAAGG | 0.415 | 0.07 | 0.545 | 0.243 | 0.49 |
| CGCGCT | -0.362 | 0.188 | 0.147 | -0.208 | -0.272 |
| CTGTTC | 0.492 | 0.166 | 0.176 | 0.479 | 0.221 |
| TTCAGG | 0.476 | 0.744 | 0.666 | 0.404 | 0.499 |
| CCCCGC | -0.388 | -0.422 | -0.198 | 0.076 | -1.11 |
| CGTCAA | -0.981 | 0.008 | 0.071 | -0.956 | -0.946 |
| AAATCT | -0.215 | -0.524 | -0.639 | -0.232 | -0.228 |
| GGTTAT | 0.115 | 0.4 | 0.098 | 0.113 | 0.323 |
| TCAGCC | 0.006 | 0.51 | 0.462 | -0.026 | -0.403 |
| ACAAGT | 0.182 | 0.384 | 0.189 | -0.063 | 0.119 |
| CTCCGC | -0.403 | -0.072 | 0.074 | 0.021 | -0.714 |
| GTAAGG | 0.426 | -0.151 | 0.062 | 0.24 | 0.469 |
| GATCGG | 0.663 | -0.071 | 0.904 | 0.344 | 0.697 |
| GTTGGT | -0.12 | 0.547 | 0.101 | -0.004 | 0.1 |
